By IC50 is meant the dose at which the fit gives 50% viability; a limit (>, <) means that the fit lies beyond the doses tested. AUC sums up the same curve from the lowest dose to the 256-fold higher top dose; it is 1 without any effect and falls as sensitivity rises. For part of these data: An inferred top dose comes from the curve model; the source does not state it.
Tests used:
Experiment in all cases: Viability of human cancer cell lines after 72 h of drug (GDSC screen)
Paclitaxel = compound: CC(=O)O[C@H]1C(=O)[C@@]2(C)[C@H]([C@H](OC(=O)c3ccccc3)[C@]3(O)C[C@H](OC(=O)[C@H](O)[C@@H](NC(=O)c4ccccc4)c4ccccc4)C(C)=C1C3(C)C)[C@]1(OC(C)=O)CO[C@@H]1C[C@@H]2O [Paclitaxel]; details: top dose 0.1024 µM
Procedure: (§1)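 Human cancer cell lines in 384-well plates, medium with 10% serum, drug for 72 h over a 256-fold dose range (nine 2-fold or five 4-fold steps up to the top dose). Adherent lines were fixed and stained with the nucleic acid dye Syto60, suspension lines read with resazurin; signal relative to control wells, capped at 0 and 100%. One two-parameter sigmoid per drug and line, fitted in a mixed model over all curves with the slope shared within a line.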

CP724714 = compound: COCC(=O)NC/C=C/c1ccc2ncnc(Nc3ccc(Oc4ccc(C)nc4)c(C)c3)c2c1 [CP724714]; details: top dose 10.24 µM; top dose inferred
Procedure: as §1

Obatoclax mesylate = compound: COC1=CC(c2cc3ccccc3[nH]2)=N/C1=C\c1[nH]c(C)cc1C [Obatoclax mesylate]; details: top dose 16 µM
Procedure: as §1

STF-62247 = compound: Cc1cccc(Nc2nc(-c3ccncc3)cs2)c1 [STF-62247]; details: top dose 10.24 µM; top dose inferred
Procedure: as §1

CX-5461 = compound: Cc1cnc(CNC(=O)c2c(=O)c3ccc(N4CCCN(C)CC4)nc3n3c2sc2ccccc23)cn1 [CX-5461]; details: top dose 10.24 µM; top dose inferred
Procedure: as §1

Cell Line | AUC (Paclitaxel) | IC50 (Paclitaxel) | AUC (CP724714) | IC50 (CP724714) | AUC (Obatoclax mesylate) | IC50 (Obatoclax mesylate) | AUC (STF-62247) | IC50 (STF-62247) | AUC (CX-5461) | IC50 (CX-5461)
A704 (kidney, adherent) | 0.955 | > 102 nM | 0.989 | > 10200 nM | 0.18 | 114 nM |  |  |  | 
AM-38 (glioma, semi-adherent) | 0.988 | > 102 nM | 0.941 | > 10200 nM | 0.194 | 120 nM | 0.973 | > 10200 nM | 0.328 | 210 nM
COLO-668 (small cell lung carcinoma, adherent) | 0.911 | > 102 nM | 0.967 | > 10200 nM | 0.319 | 312 nM | 0.989 | > 10200 nM | 0.979 | > 10200 nM
CP67-MEL (melanoma, adherent) | 0.809 | > 102 nM |  |  |  |  |  |  |  | 
DOHH-2 (B-cell lymphoma, suspension) | 0.534 | 7.91 nM |  |  | 0.115 | < 62.5 nM |  |  |  | 
EJM (lymphoid neoplasm, semi-adherent) | 0.812 | 44.4 nM | 0.992 | > 10200 nM | 0.446 | 732 nM | 0.979 | > 10200 nM | 0.96 | > 10200 nM
EW-16 (Ewing sarcoma, adherent) | 0.478 | 5.57 nM | 0.97 | > 10200 nM | 0.125 | < 62.5 nM | 0.949 | > 10200 nM | 0.855 | 8740 nM
Farage (B-cell lymphoma, suspension) | 0.588 | 10.6 nM | 0.98 | > 10200 nM | 0.176 | 136 nM | 0.98 | > 10200 nM | 0.879 | 7310 nM
GAK (melanoma, adherent) | 0.87 | 87.9 nM | 0.985 | > 10200 nM | 0.069 | < 62.5 nM | 0.972 | > 10200 nM | 0.965 | > 10200 nM
GRANTA-519 (B-cell lymphoma, suspension) | 0.735 | 27.6 nM | 0.987 | > 10200 nM | 0.726 | 4060 nM | 0.989 | > 10200 nM | 0.927 | > 10200 nM
HCE-4 (oesophagus, adherent) | 0.456 | 4.94 nM | 0.985 | > 10200 nM | 0.284 | 272 nM | 0.992 | > 10200 nM | 0.992 | > 10200 nM
HH (T-cell leukaemia, suspension) | 0.763 | 49 nM | 0.971 | > 10200 nM | 0.49 | 929 nM | 0.836 | > 10200 nM | 0.751 | 4410 nM
HOP-62 (lung adenocarcinoma, adherent) | 0.591 | 11.3 nM | 0.973 | > 10200 nM | 0.146 | 79.7 nM | 0.96 | > 10200 nM | 0.758 | 3540 nM
IA-LM (large cell lung carcinoma, adherent) | 0.409 | 3.49 nM | 0.979 | > 10200 nM | 0.149 | 68.6 nM | 0.983 | > 10200 nM | 0.922 | > 10200 nM
JVM-2 (lymphoid neoplasm, suspension) | 0.953 | > 102 nM | 0.966 | > 10200 nM | 0.677 | 3520 nM | 0.933 | > 10200 nM | 0.753 | 4130 nM
KARPAS-299 (anaplastic large cell lymphoma, suspension) | 0.828 | 49.1 nM | 0.984 | > 10200 nM | 0.8 | 6270 nM | 0.81 | 4300 nM | 0.971 | > 10200 nM
KARPAS-422 (B-cell lymphoma, suspension) | 0.802 | 49.4 nM | 0.987 | > 10200 nM | 0.212 | 145 nM | 0.978 | > 10200 nM | 0.894 | > 10200 nM
KARPAS-620 (haematopoietic neoplasm, suspension) | 0.438 | 4.44 nM | 0.957 | > 10200 nM | 0.108 | 70.7 nM | 0.964 | > 10200 nM | 0.944 | > 10200 nM
KELLY (neuroblastoma, adherent) | 0.896 | > 102 nM | 0.976 | > 10200 nM | 0.158 | 102 nM | 0.989 | > 10200 nM | 0.43 | 421 nM
KG-1 (acute myeloid leukaemia, suspension) | 0.99 | > 102 nM | 0.953 | > 10200 nM | 0.325 | 344 nM | 0.97 | > 10200 nM | 0.838 | 5900 nM
KLE (endometrium, adherent) | 0.809 | 96.4 nM | 0.927 | > 10200 nM | 0.529 | 1250 nM | 0.901 | > 10200 nM | 0.899 | > 10200 nM
KMS-12-BM (myeloma, suspension) | 0.493 | 6.15 nM | 0.983 | > 10200 nM | 0.316 | 340 nM | 0.978 | > 10200 nM | 0.781 | 3500 nM
KOPN-8 (B-cell leukaemia, suspension) | 0.554 | 8.76 nM | 0.971 | > 10200 nM | 0.049 | < 62.5 nM | 0.967 | > 10200 nM | 0.556 | 891 nM
KP-N-RT-BM-1 (neuroblastoma, semi-adherent) | 0.848 | > 102 nM |  |  |  |  |  |  |  | 
KY821 (leukaemia, suspension) | 0.752 | 30.2 nM | 0.988 | > 10200 nM |  |  | 0.959 | > 10200 nM | 0.934 | > 10200 nM
